These results are taken from the supplement of paper PMC10600219.

Where a name gives a salt, the structure may show the parent alone. Over roughly 2,800 compounds, “cell viability relative to vehicle” has its median near 1.1; the lowest 2% begin near 0.19. This is one part of the list.

The assay relates to NCI-H2228 parental. Put plainly: cell viability relative to vehicle (fraction of vehicle); NCI-H2228 is an ALK-positive lung cancer line and DTP means drug-tolerant persister; higher = less growth inhibition. The conditions noted are these: 100 nM; treatment time 6 days. The gist of the method:
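The 3114-agent TargetMol anti-cancer compound library was tested at 100 nM for 6 days on parental NCI-H2228 cells and on persister cells derived with 1000 nM of a targeted drug for 13 days. ATP readout by the CellTiter-Glo 3D Cell Viability Assay gave cell viability relative to DMSO vehicle-treated cells.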
With `COC(=O)[C@@H](N)Cc1cnc[nH]1` [Methyl L-histidinate dihydrochloride], the cell viability was 1.05.
On to `Cc1cc(N2C[C@@H](C)N[C@@H](C)C2)ncc1-c1ccc(-c2nc3c(ccn3C)c(=O)[nH]2)cc1`, for which the cell viability worked out at 0.964.
In the case of `O=C(O)CCN1C(=O)/C(=C/c2ccc(-c3ccc([N+](=O)[O-])cc3)o2)SC1=S` it was 0.968; in that of `CC(=O)OC/C=C(C)/C=C/C=C(C)/C=C/C1=C(C)CCCC1(C)C` [Retinyl acetate], 1.04; in that of `NS(=O)(=O)c1cc2c(cc1Cl)N=C(CSCc1ccccc1)NS2(=O)=O` [Benzthiazide], 0.933.
The value for `O=C1C(CC[S+]([O-])c2ccccc2)C(=O)N(c2ccccc2)N1c1ccccc1` (configuration not stated) [Sulfinpyrazone] was 1.11; that for `Cc1cnc(Nc2ccc(N3CCN(C)CC3)cc2)nc1Nc1cccc(S(=O)(=O)NC(C)(C)C)c1` was 0.79.
For the molecule `O=C1NC(=O)/C(=C/c2ccc(-c3ccc(F)cc3O)o2)S1`, the cell viability worked out at 1.09.
The value for `CC(C)CCN1c2nc(Nc3cc(F)c(O)c(F)c3)ncc2N(C)C(=O)C1C` (configuration not stated) was 1.03; that for `CCCCCCCCCCCCCCCCCC(=O)O` [Stearic acid] was 1.05.
`CN1CCN(CCCNc2ncc(Cl)c(-c3cc4c(C(=O)NC5CC5)cccc4s3)n2)CC1`: the cell viability is 1.07.
The value for `CC[C@@]1(O)C(=O)OCc2c1cc1n(c2=O)Cc2cc3cc(O)ccc3nc2-1` [10-Hydroxycamptothecin] was 0.0838.
The value for `CC[C@@]1(O)C(=O)OCc2c1cc1n(c2=O)Cc2cc3cc(O)ccc3nc2-1` [Hydroxy Camptothecine] was 0.0691.
In the case of `OCC1(O)COc2cc(O)ccc2-c2cc(O)c(O)cc2C1` (configuration not stated) [Protosappanin B] it was 1.04; in that of `CC[C@H](C)n1cc(C)c2c(C(=O)NCc3c(C)cc(C)[nH]c3=O)cc(-c3ccc(N4CCNCC4)nc3)cc21`, 1.25.
Turning to `Nc1cccc(S(=O)(=O)N2CCCN(S(=O)(=O)c3ccc4c(c3)OCCO4)CC2)c1`, the cell viability stood at 1.15.
The value for `COc1ccc(-c2oc3c(CC=C(C)C)c(O)cc(O)c3c(=O)c2O[C@@H]2O[C@@H](C)[C@H](O)[C@@H](O)[C@H]2O)cc1` [Baohuoside I] was 1.17.
In the case of `Cc1cccc(-c2[nH]c(C(C)(C)C)nc2-c2ccc3nccnc3c2)n1` it was 0.984; in that of `CC1(C)OC(=O)C=C[C@]2(C)[C@H]3CC[C@@]4(C)[C@H](c5ccoc5)OC(=O)[C@H]5O[C@]54[C@]3(C)C(=O)C[C@@H]12` [Obacunone], 1.09.
`C[C@@H](c1ncncc1F)[C@](O)(Cn1cncn1)c1ccc(F)cc1F` [Voriconazole]: the cell viability turned out to be 1.02.
Take `Cc1c(NC(=O)c2ccc(C(C)(C)C)cc2)cccc1-c1cn(C)c(=O)c(Nc2ccc(C(=O)N3CCOCC3)cc2)n1`: the cell viability stood at 0.848.
`O=C(O)Cc1ccccc1Nc1c(Cl)cccc1Cl` [Diclofenac sodium]: the cell viability amounted to 1.21.
For `C[C@@H]1CC[C@@]2(NC1)O[C@H]1C[C@H]3[C@@H]4CC=C5C[C@@H](O[C@@H]6O[C@H](CO)[C@@H](O[C@@H]7O[C@@H](C)[C@H](O)[C@@H](O)[C@H]7O)[C@H](O)[C@H]6O[C@@H]6O[C@@H](C)[C@H](O)[C@@H](O)[C@H]6O)CC[C@]5(C)[C@H]4CC[C@]3(C)[C@H]1[C@@H]2C` [Solamargine], the cell viability stood at 1.06.
For `CN(C)CCCNC(=O)c1ccc(-c2cc(O)c3ncccc3c2)cc1`, the cell viability was found to be 1.11.
For `CC(=O)Oc1cc(C(F)(F)F)ccc1C(=O)O` [Triflusal], the cell viability stood at 1.22.
As for `CC(C)C(=O)SCCCCCCC(=O)Nc1nc(-c2ccccc2)cs1`, the cell viability turned out to be 0.967.
With `CNC(=O)c1ccccc1Oc1nc(Nc2cc(OC)c(OC)c(OC)c2)ncc1Br`, the cell viability worked out at 1.14.
Consider `O=c1ncn2nc(Sc3ccc(F)cc3F)ccc2c1-c1c(Cl)cccc1Cl` [Neflamapimod], for which the cell viability is 1.14.
Consider `O=c1[nH]cc(F)c(=O)[nH]1` [Fluorouracil], for which the cell viability amounted to 0.981.
The value for `Cc1cncc(CN2CCC(=C3c4ccc(Cl)cc4CCc4cccnc43)CC2)c1` [Rupatadine Fumarate] was 1.14; that for `CCC(=O)O[C@H](CC(=O)O)C[N+](C)(C)C` [Propionyl-L-carnitine hydrochloride] was 1.04; that for `Nc1ccc(O)c(C(=O)O)c1` [Mesalamine] was 0.99.
In the case of `Cc1cc(NC(=O)C2=C(O)c3ccccc3S(=O)(=O)N2C)no1` [Isoxicam] it was 0.894; in that of `O=C1NC(=O)/C(=C\c2ccc3nccnc3c2)S1`, 1.06; in that of `COC(=O)N1CCN(Cc2cccc(NC(=O)Nc3ccc(C)nc3)c2F)CC1` [Omecamtiv mecarbil], 1.08.
In the case of `O=C(O)CSc1cc(NS(=O)(=O)c2ccc(Br)cc2)c2ccccc2c1O` it was 1.04.
With `CN(C)CCCN1c2ccccc2CCc2ccc(Cl)cc21` [Clomipramine hydrochloride], the cell viability is 0.946.
Take `O=c1[nH]c(=O)n([C@@H]2O[C@H](CO)[C@@H](O)[C@H]2O)cc1F` [5-Fluorouridine]: the cell viability is 0.425.
In the case of `O=C(Nc1nc(-c2ccc(O)c(O)c2)c(-c2ccccc2)s1)c1ccc(O)c(O)c1` it was 1.07; in that of `COC(=O)C1=C(C)NC(C)=C(C(=O)OC)C1c1ccccc1[N+](=O)[O-]` [Nifedipine], 0.977; in that of `COc1cc(N2CCN(C)CC2)ccc1Nc1nccc(-c2cn(C)c3cnccc23)n1`, 1.02.
The value for `COc1cc2c(cc1O)CC[C@@H]1[C@@H]2CC[C@]2(C)[C@@H](O)CC[C@@H]12` [2-Methoxyestradiol] was 1.06; that for `COc1ccc(C(=O)N2CCN(c3ccc4c(c3)CCC(=O)N4)CC2)cc1OC` [Vesnarinone] was 1.01; that for `O=C(NC[C@H](O)CN1CCc2ccccc2C1)c1ccnc(NC2CCC2)c1` was 0.666.
In the case of `C#C[C@]1(O)CC[C@H]2[C@@H]3CCC4=CC(=O)CC[C@@H]4[C@H]3CC[C@@]21C` [Norethindrone] it was 1.17; in that of `CC(C)[C@H](C(=O)Nc1ccc(C(=O)NO)cc1)c1ccccc1`, 0.605; in that of `C#C[C@]1(OC(C)=O)CC[C@H]2[C@@H]3CCC4=C[C@@H](OC(C)=O)CC[C@@H]4[C@H]3CC[C@@]21C` [Ethynodiol diacetate], 1.11.
Take `Oc1cc(-c2nc(-c3ccccc3)[nH]c2-c2ccncc2)ccc1Cl`: the cell viability is 1.08.
The value for `CNC1CCC(N(Cc2cccc(-c3ccncc3)c2)C(=O)c2sc3ccccc3c2Cl)CC1` (configuration not stated) was 1.13; that for `NC(=O)c1ccc2nc(-c3ccc(Oc4ccc(Cl)cc4)cc3)[nH]c2c1` was 0.996.
Consider `Nc1ccc(S(=O)(=O)Nc2ncccn2)cc1` [Sulfadiazine], for which the cell viability came to 1.25.
In the case of `CCCC(C)NC(=O)c1ccc(Cl)c(Cl)c1` (configuration not stated) it was 1.06; in that of `O=C1O[C@H]2[C@@H]3OC(=O)c4cc(O)c(O)c(O)c4-c4c(cc(O)c(O)c4O)C(=O)OC[C@H]2O[C@@H](OC(=O)c2cc(O)c(O)c(O)c2)[C@@H]3OC(=O)c2cc(O)c(O)c3c2[C@@H]2C1=CC(=O)[C@](O)(O3)C2(O)O` [Geraniin], 0.981; in that of `O=[N+]([O-])c1cc(C(F)(F)F)cc([N+](=O)[O-])c1NNC(=S)Nc1ccc(F)cc1`, 1.09.
`COc1cc2ncnc(Nc3ccc(Cl)cc3F)c2cc1OC`: the cell viability stood at 0.988.
On to `Oc1ccc(Nc2nc(-c3ccc(Cl)cc3)cs2)cc1`, for which the cell viability amounted to 1.06.
In the case of `N#Cc1ccc2[nH]c(O)c(-c3ccc(CN4CCOCC4)cn3)c2c1` it was 1.09.
As to `CNC(=O)c1c(C)oc2cc(Oc3ncnc4cc(OC)c(OC)cc34)ccc12` [Fruquintinib], the cell viability was found to be 1.06.
Consider `CO[C@H]1C[C@@H]2CC[C@@H](C)[C@@](O)(O2)C(=O)C(=O)N2CCCC[C@H]2C(=O)O[C@H]([C@H](C)C[C@@H]2CC[C@@H](O)[C@H](OC)C2)CC(=O)[C@H](C)/C=C(\C)[C@@H](O)[C@@H](OC)C(=O)[C@H](C)C[C@H](C)/C=C/C=C/C=C/1C` [Rapamycin], for which the cell viability worked out at 0.833.
Take `N[C@@H]1CCCN(c2c(/C=C3\SC(=O)NC3=O)cccc2-c2ccccc2)C1`: the cell viability came to 0.816.
Regarding `CCOc1ccccc1C(N)=O` [2-Ethoxybenzamide], the cell viability was 1.18.
In the case of `COc1nccnc1NS(=O)(=O)c1ccc(NC(=O)/C=C/c2ccc([N+](=O)[O-])s2)cc1` [Necrosulfonamide] it was 1.13; in that of `CN(C)C(=O)c1ccc(S(=O)(=O)c2ccc(NC(=O)[C@@](C)(O)C(F)(F)F)c(Cl)c2)cc1`, 0.992.
In the case of `C#C[C@]1(O)CC[C@H]2[C@@H]3CCc4cc(OC)ccc4[C@H]3CC[C@@]21C` [Mestranol] it was 1.09.
In the case of `CC(C)NCC(O)c1ccc(NS(C)(=O)=O)cc1` (configuration not stated) [Sotalol hydrochloride] it was 1.14.
As to `CNc1ncc2cc(-c3cc(NC(=O)NCCC(C)(C)C)c(F)cc3C)c(C)nc2n1`, the cell viability came to 0.861.
Consider `COc1ccc2cccc(CCNC(C)=O)c2c1` [Agomelatine], for which the cell viability worked out at 1.13.
In the case of `C1=N/C2=N/c3ccc(OCCN4CCCC4)c(c3)COC/C=C/COCc3cccc(c3)C(=C1)N2` [Pacritinib], the cell viability came to 1.1.
Turning to `Cc1[nH]c(/C=C2\C(=O)Nc3ccccc32)c(C)c1CCC(=O)O` [Orantinib], the cell viability was found to be 1.16.
The value for `CC(=O)N1CCN(c2ccc(OCC3COC(Cn4ccnc4)(c4ccc(Cl)cc4Cl)O3)cc2)CC1` (configuration not stated) [Ketoconazole] was 1.12; that for `CN(CCOc1ccc(NS(C)(=O)=O)cc1)CCc1ccc(NS(C)(=O)=O)cc1` [Dofetilide] was 1.2.
The value for `CNCC(O)c1ccc(O)c(O)c1` (racemic) [DL-Adrenaline Hydrochloride] was 0.979; that for `CCN(CC)CCCC(C)Nc1c2ccc(Cl)cc2nc2ccc(OC)cc12` (configuration not stated) [Quinacrine dihydrochloride] was 1.28.
The value for `CC(=O)c1cc(O)ccc1O` [2-5-dihydroxyacetophenone] was 1; that for `COc1cc(OC)cc(N(CCNC(C)C)c2ccc3ncc(-c4cnn(C)c4)nc3c2)c1` [Erdafitinib] was 1.09; that for `O=C1C=C2C=C[C@@H](O)[C@H](O)[C@H]2O1` [griffonilide] was 1.11.
Take `CCCCCCCCCCCCCCCC[N+](C)(C)CCN(Cc1ccc(OC)cc1)c1ncccn1` [Thonzonium Bromide]: the cell viability is 1.19.
